PubChem BioAssay AID1240 (Sanford-Burnham Center for Chemical Genomics, 2008)
The campaign covered roughly 50,000 compounds. About 800 (1.6%) showed an effect of 50% or more. This is one part of the list.

Molecular target: Bcl-2-like protein 10 (Homo sapiens) (UniProt Q9HD36)
Assay: TR3 peptide-Bcl-B binding displacers, biochemical primary FP assay, phenotype converters (AID 1240);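 further: 0% = Bcl-B with tracer peptide and DMSO and 100% = tracer peptide lacking Bcl-B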
Conditions: GST-Bcl-B / FITC-TR3 peptide fluorescence polarization; stronger effect = higher value; compound at 3.75 mg/L

Chain of UniProt Q9HD36 (Q9HD36 whole entry, looked up): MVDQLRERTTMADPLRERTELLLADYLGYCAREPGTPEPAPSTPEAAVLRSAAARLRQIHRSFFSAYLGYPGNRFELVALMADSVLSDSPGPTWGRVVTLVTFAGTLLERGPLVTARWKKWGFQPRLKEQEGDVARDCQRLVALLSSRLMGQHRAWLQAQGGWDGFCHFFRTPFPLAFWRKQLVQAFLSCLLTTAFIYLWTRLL

In order of falling displacement:
1. Cc1cccc(-c2noc(-c3cccc([N+](=O)[O-])c3C)n2)c1  78.9%
2. O=C(Nc1cccc2nsnc12)c1ccc(OCc2ccccc2)cc1  35.4%
3. COc1ccc(/C=c2\sc3nnc(-c4ccccc4)n3c2=O)c(OC)c1  28%
4. O=C1NC(=S)N/C1=C\c1ccccc1OCc1ccc([N+](=O)[O-])cc1  27.8%
5. CC(C)Nc1nc(-c2ccccc2Cl)nc2ccccc12  24.8%
6. O=C(CCCN1C(=O)/C(=C/c2ccccc2)SC1=S)Nc1ccccc1  20.6%
7. O=C1c2ccccc2C(=O)C1(Nc1ccc(F)cc1)c1ccccc1  17.4%
8. CCOc1cc(/C=C2\C(=O)NC(=O)N(c3ccc(C)cc3)C2=O)c(Br)cc1OC  16.8%
9. N#Cc1ccccc1NC(=O)NS(=O)(=O)c1ccccc1Cl  15.9%
10. Cc1ccc(CSCCNC(=O)c2ccc(CN(c3cccc(Cl)c3)S(C)(=O)=O)cc2)cc1  15.7%
11. CCOc1ccc(NC(=O)c2ccccc2NC(=O)c2ccccc2)cc1  15.4%
12. Cc1c(C(=O)Nc2ccc(Cl)cn2)oc2ccccc12  15.4%
13. CC(=O)N(c1ccc(Cl)cc1)S(=O)(=O)c1ccc(Cl)cc1  14.9%
14. CN1C(=O)C(=Cc2ccc(-c3ccc(Cl)c(C(=O)O)c3)o2)C(=O)N(C)C1=O  14.5%
15. O=C1NC(=O)C(=Cc2ccc(OCc3ccccc3F)cc2)C(=O)N1  13.6%
16. Cc1nnc2nc(-c3cccc(Cl)c3Cl)[nH]n12  13.4%
17. O=[N+]([O-])c1ccc(N2CCOCC2)c(Cl)c1N1CCOCC1  12.9%
18. O=C(Oc1ccc(C(=S)N2CCOCC2)cc1)c1ccccc1  12.4%
19. COc1ccc(S(=O)(=O)N2CCN(C(=O)c3cccnc3)CC2)cc1  12.2%
20. COc1ccc(Cl)cc1C(=O)N(Cc1ccccc1)C(C)C  11.9%
21. COc1cc(-c2nc3ccccn3c2/N=C/c2cccc([N+](=O)[O-])c2)ccc1O  11.3%
22. COc1ccc(N(CC(=O)O)S(C)(=O)=O)cc1  11.2%
23. Cc1ccc(/C=C/C(=O)NCc2ccco2)o1  11.2%
24. CC(NS(=O)(=O)c1ccc(Cl)cc1)C1C2CC3CC(C2)CC1C3 (stereo not given)  10.6%
25. O=C(Nc1cccc(F)c1)c1ccc(Cl)cc1Cl  10.3%
26. O=[N+]([O-])c1cc(C(=S)N2CCOCC2)ccc1O  10.2%
27. CCc1ccc(NC(=O)C2CC(=O)N(c3ccc(CC)cc3)C2)cc1 (stereo not given)  9.5%
28. O=C1c2ccccc2C(=O)c2c1cccc2S(=O)(=O)Nc1ccc(Cl)cc1  9.5%
29. Cc1occc1C(=O)N1CCCc2ccccc21  9.4%
30. CN(C(=O)COc1ccc2ccccc2c1)c1ccccc1  9%
31. CCCOc1ccc(C(=O)Nc2cc(C(=O)OC)cc(C(=O)OC)c2)cc1  8.8%
32. Cc1ccc(C(=O)O/N=C(\N)c2ccccn2)cc1[N+](=O)[O-]  8.2%
33. O=C(NCCO)c1cccc2c1C(=O)c1ccccc1-2  7.8%
34. COc1ccc2c(c1)C1=NN(/C(C)=C/C(C)=O)C(c3ccc(Br)cc3)C1CC2 (stereo not given)  7.3%
35. O=C(NN1C(=O)c2ccccc2C1=O)c1ccc2c(c1)C(=O)N(c1nccs1)C2=O  7.2%
36. CC(=O)/C=C/c1cc[n+](C)cc1  7.1%
37. c1ccc2cc(OCCCCN3CCCCC3)ccc2c1  6.3%
38. O=c1c(-c2nc3ccccc3s2)coc2cc(OCc3ccc([N+](=O)[O-])cc3)ccc12  6.2%
39. COc1cc(OC)cc(C(=O)Nc2cccc(-c3nc4ncccc4o3)c2C)c1  5.6%
40. O=C(NCCOc1ccccc1)c1ccccc1C(F)(F)F  5.6%
41. Cc1ccc(-c2nc3ncccc3o2)cc1NC(=O)COc1ccc(C(C)(C)C)cc1  5.4%
42. COc1ccc(NC(=O)O/N=C\c2ccc(N(C)C)cc2)cc1  4.8%
43. COc1ccc(N(CC(=O)Nc2ccc(Br)cc2)S(C)(=O)=O)cc1  3.9%
44. CC1(C)CC(=O)C=C(NC2CC(C)(C)NC(C)(C)C2)C1  2.6%
45. O=C(Nc1ccc2nsnc2c1Br)c1sc2ccccc2c1Cl  2.3%
46. O=[N+]([O-])c1ccc(Nc2c(F)c(F)c(F)c(F)c2F)cc1  2.3%
47. CCOc1ccccc1C1NC(=O)c2c(sc3c2CCN(C)C3)N1 (stereo not given)  2%
48. CCOc1ccc(C(=O)Nc2cc(-c3nc4ccccc4o3)ccc2C)cc1[N+](=O)[O-]  1.7%
49. COc1ccc(Br)cc1CN1CCN(Cc2ccc(OC)c(OC)c2)CC1  1.7%
50. COc1ccc(CCN=CC2=C(O)CC(c3ccccc3)CC2=O)cc1OC (stereo not given)  1.2%
51. CC(=O)N(C1=C(N2CCOCC2)C(=O)c2ccccc2C1=O)c1ccc(C(=O)O)cc1  1.1%
52. O=C(/C=C/c1ccco1)NCCCNC(=O)/C=C/c1ccco1  1.1%
53. O=[N+]([O-])c1ccc(C=Nc2ccc(Oc3ccccc3)cc2)s1  1%
54. C=CCC(C)(CC=C)NS(=O)(=O)c1ccc(NC(C)=O)cc1  0.7%
55. CCOc1ccccc1C1C(C(=O)OC)=CNC=C1C(=O)OC  0.6%
56. COc1cc(C(=O)N2CCN(C(=O)c3ccncc3)CC2)cc(OC)c1OC  0.3%
57. CCc1cc2c(=O)c(-c3nc4ccccc4s3)c(C)oc2cc1OS(C)(=O)=O  -0.2%
58. Cc1[nH]c(=S)c(C#N)c(-c2cccs2)c1C(=O)Nc1ccccc1  -0.3%
59. O=C(Nc1cccc2ccccc12)C1C2C3CCC(C3)C12 (stereo not given)  -0.5%
60. COc1ccc(C(=O)Nc2ccc(OC(F)(F)F)cc2)cc1Cl  -0.6%
61. NNC(=O)Cn1nc(-c2ccccc2)c2ccccc2c1=O  -0.9%
62. O=C1c2ccccc2-c2c(-c3ccccc3)sc(=O)n21  -1.5%
63. O=C1NN(c2ccccc2)C(=O)/C1=C\c1ccc(O)cc1  -1.7%
64. C(=C\c1ccco1)/C=N/Nc1nnc2c(n1)[nH]c1ccccc12  -1.8%
65. NC(=O)c1c(NC(=O)c2ccccc2Cl)sc2c1CCCC2  -2%
66. COc1ccc(-c2c(C)nn3c(-c4cccs4)cc(C(F)(F)F)nc23)cc1  -2.1%
67. CC(C)(C)c1ccc(C2=N/C(=C\c3cccnc3)C(=O)O2)cc1  -2.2%
68. O=C(c1ccc(F)cc1)N1CCN(c2cc(N3CCCC3)c(F)cc2[N+](=O)[O-])CC1  -2.7%
69. Cc1ccc(C(=O)N2CCN(c3ccc(Cl)cc3)CC2)cc1  -3%
70. Cc1cc(=O)oc2c(C)c(O)c(C(=O)c3ccccc3)cc12  -3.1%
71. O=C(NCCCCOc1ccccc1)C(O)(c1ccc(Cl)cc1)c1ccc(Cl)cc1  -3.5%
72. COc1ccc2c3c(c(=O)oc2c1)CCCC3  -3.8%
73. O=C(Cc1cccc2ccccc12)N1CCN(c2ccccc2)CC1  -4%
74. COc1ccc(/C=C(\NC(=O)c2ccccc2)C(=O)Nc2cccc(C)c2)cc1OC  -4.2%
75. COc1ccc(C(CC(=O)c2ccc(C)cc2)Nc2ccc(Br)cc2)cc1 (stereo not given)  -4.2%
76. COc1ccc(N2C(=O)C3C4C=CC(C4=C4CCCC4)C3C2=O)cc1 (stereo not given)  -4.3%
77. CCOc1ccc(-c2cc(C(=O)Nc3c(C)cccc3CC)c3ccccc3n2)cc1  -4.4%
78. C=CCOc1ccc(/C=N/NC(=O)CN(Cc2ccccc2)S(=O)(=O)c2ccccc2)cc1  -4.4%
79. CCOCCOC(=O)c1ccc(NC(=O)COc2ccc([N+](=O)[O-])cc2)cc1  -4.5%
80. CC(=O)NC1=NN(C(C)=O)C(C)(c2cccc(OC(=O)c3ccccc3)c2)S1 (stereo not given)  -4.7%
81. CCOC(=O)c1sc(NC(=O)c2c(-c3ccccc3)noc2C)c(C(=O)OCC)c1C  -4.7%
82. CC(=O)c1cccc(NC(=O)c2cccc(Cl)c2)c1  -5.2%
83. O=C(COc1cccc(Cl)c1)NC1CCCCC1  -6%
84. O=c1c2ccccc2nc2n1S(=O)(=O)c1ccccc1-2  -6.5%
85. CC1=C(C(=O)OCc2ccc(C)cc2)C(c2ccc(O)cc2)NC(=O)N1 (stereo not given)  -6.7%
86. O=C(CSCc1ccccc1)NCCc1ccc(Cl)cc1  -6.7%
87. COc1ccc(CCN(C(=O)CCC(=O)O)C2CC(=O)N(c3cccc(Cl)c3)C2=O)cc1 (stereo not given)  -7%
88. COc1ccc(/C=N/Nc2ccc(Br)cc2)cc1[N+](=O)[O-]  -7.2%
89. Cc1ccccc1/C=N/NC(=O)c1ccc(-c2ccccc2)cc1  -7.2%
90. Cc1ccccc1N1CCN(C(=O)CN2C(=O)c3ccccc3C2=O)CC1  -7.4%
91. CCCCc1ccc(C(=O)NNC(=O)c2ccccc2C)cc1  -7.9%
92. O=C(CCN1CCCC1)NCC1COc2ccccc2O1 (stereo not given)  -8.3%
93. O=C(NC1CCCCC1)C1CC(=O)N(c2cccc([N+](=O)[O-])c2)C1 (stereo not given)  -8.3%
94. COc1ccc(-c2ccc(-c3nc(-c4ccccc4Cl)no3)cc2)cc1  -8.7%
95. COc1ccc(S(=O)(=O)N2CCN(Cc3ccc(OC)c(OC)c3OC)CC2)cc1  -9.1%
96. Cc1ccc(OCC(=O)NCc2ccc(F)cc2)cc1  -10.4%
97. CCOc1cc(-c2nc3ccccc3c(=O)[nH]2)cc(Br)c1O  -10.4%
98. O=[N+]([O-])c1ccccc1/C=N/Nc1ncc(Br)cn1  -10.7%
99. CCOc1ccccc1NC(=O)CSc1nc2ccccc2s1  -10.8%
100. O=C(NNC(=O)c1ccc(Cl)cc1Cl)c1ccco1  -11.4%
101. CC(C)(C)C(=O)/C=C(\N)COc1ccccc1  -11.6%
102. CCCCN=C(CCC)C1=C(O)CC(C)(C)CC1=O  -12.1%
103. CC1(C)CC(=O)C(C(O)c2ccc([N+](=O)[O-])cc2)C(C)(C)N1 (stereo not given)  -12.9%
104. O=C(O)CCCCCN1C(=O)C(=O)/C(=C(/O)c2ccc(Cl)cc2)C1c1cccc([N+](=O)[O-])c1 (stereo not given)  -13.2%
105. Cc1ccc(OCC(=O)O/N=C(\N)Cc2ccc([N+](=O)[O-])cc2)c(Br)c1  -13.2%
106. O=C1N=C(N2CCN(C3=NC(=O)/C(=C/c4ccccc4O)S3)CC2)S/C1=C\c1ccccc1O  -13.8%
107. CCOC(=O)CC(=O)c1c(C)[nH]c(C(=O)OCC)c1C  -18.1%
108. O=c1ccnc(SCc2ccc(Cl)cc2Cl)[nH]1  -27.9%
109. COc1cccc(C(=O)Nc2cc(-c3nc4ccccc4o3)ccc2OC)c1  -29.6%
110. Oc1ccccc1Nc1nnc(-c2ccccc2)c2ccccc12  -45.2%
